In the supplement of paper PMC10126150:
Values marked as one replicate rest on one cluster of the flow cell; about a third of the high ones do not repeat.

System: ATP
Assay: switch fluorescence ratio, 500 uM ATP over buffer (Cy3 cluster intensity, sum of 5 cycles each) (fold (ratio)); higher = stronger signal-on switching upon ATP binding; sequences stand for … in TCGTCGGCAGCGTCAGATGTGTATAAGAGACAGTTTTTTTTTTTTTTTTTTTTTTTTT…TC
Details: aptamer strand: ATP DNA aptamer (quencher-CACCTGGGGGAGTATTGCGGAGGAAGG + anchor), 100 nM annealed; ATP concentration: 500 uM; one replicate
Outline: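 The fluorescence ratio divides summed target-cycle Cy3 intensity by summed buffer-cycle Cy3 intensity for each cluster and is averaged per switch-domain sequence. Cy3-labelled switching-strand clusters on a modified Illumina MiSeq flow-cell were annealed to 100 nM quencher-labelled ATP aptamer, then imaged in selection buffer and again after 15 min with 500 uM ATP at 22 °C. Five such cycles were run, with NaOH stripping and re-annealing between them, and clusters outside 100-1000 RFU were excluded.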
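Note: ATP exposure 15 min at 22 °C before imaging.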

| Sequence | switch fluorescence ratio |
| --- | --- |
| AATACTGAGT | 1.02 |
| AGGTGGGATA | 0.974 |
| TCTTTCCAGC | 1.04 |
| CTATTGGGGT | 1 |
| ACGTTGGCAT | 1.04 |
| CCTCGCCTGA | 1.63 |
| GGCATTTTGG | 0.98 |
| GTGGCCGCTG | 0.954 |
| GATGTCTGA | 1.02 |
| TCCCATACGG | 1.1 |
| TTAGCCATTA | 1.03 |
| CGTTGAGCAT | 1.13 |
| TTGTGTTCGT | 1.01 |
| GGATTTTGAC | 1.02 |
| CCAACCGGCA | 1.26 |
| GCGGGGAGCT | 0.966 |
| CTGCGCCACA | 1.1 |
| GGATGCCGG | 1.11 |
| GTTTAAGGAA | 0.999 |
| TCCTAAAAAT | 0.98 |
| CCCCTTGGAC | 1.05 |
| GTAATGAAAA | 0.995 |
| TCAATGAGAT | 0.992 |

| Sequence | switch fluorescence ratio |
| --- | --- |
| CTGCTTGAGC | 1.04 |
| ATTCGAAAGA | 1.02 |
| TTATAAGACG | 0.961 |
| GGAGGAGCAA | 2.27 |
| GCGGTCAGCG | 0.965 |
| CAGTTAAACT | 1.07 |
| TTGGTAGTAG | 0.999 |
| CCCTGTGAGA | 1.02 |
| GCCTAACTGT | 0.957 |
| GGGAATATCT | 0.972 |
| ACGCTGGTTG | 1.04 |
| ACGCATAATC | 2.26 |
| AATTGTCCCC | 1.03 |
| CCGTGGGGG | 1 |
| CTCCAGACCA | 1.11 |
| AAGTATGTT | 0.988 |
| CGTTGCGCGG | 1.01 |
| TATAAATCTG | 0.925 |
| GTTCATATAT | 0.991 |
| TTCGCTAAT | 1.19 |
| TCGTATTCGT | 0.96 |
| ACGGAGACGC | 1.07 |
| CGCTAAAAT | 0.998 |

| Sequence | switch fluorescence ratio |
| --- | --- |
| GCGAAGGGGA | 1.08 |
| GTTGCGCTGG | 1.01 |
| TAAATGTTT | 0.969 |
| GCCCTTCTG | 1.02 |
| ATAGCAGTGA | 1.03 |
| GGATTGGGAG | 1.04 |
| ATCCCTCAGA | 1.02 |
| AGGTTTCGCT | 0.976 |
| GGAAAGACGG | 1.06 |
| GACGGCGGTG | 1 |
| CGCTTCGTTG | 0.992 |
| ACAGGTCGGC | 0.983 |
| GCGCGATAAT | 1.69 |
| CGTAGAGAAT | 3.93 |
| GAAGTGGGTA | 0.956 |
| ACGTGCATTT | 0.983 |
| TTCACGGTT | 1.06 |
| TAGGTGGATC | 1.02 |
| TTGCCGTGTC | 0.982 |
| TGGATTCGTA | 1.06 |
| AACTAATAGT | 1.02 |
| GTGAGAAGGT | 0.961 |
| AAGTAGCTCT | 1.01 |

| Sequence | switch fluorescence ratio |
| --- | --- |
| ACGACTAGTT | 1.02 |
| CAGGCATGC | 1.07 |
| CGGAATTCCT | 0.987 |
| GTCATATCAG | 1.01 |
| CCTAAAACCT | 1.96 |
| AGGGCGTTA | 1 |
| AAGAAAATA | 0.959 |
| AGATCACTC | 1.05 |
| CTAAGTACGC | 1.26 |
| TACAATGGG | 1.01 |
| ACAATTGTTT | 0.941 |
| TGTCCGCGGT | 1.43 |
| TTGCGATCGC | 0.95 |
| AAAGGGAAAG | 1.02 |
| ATAGAACCG | 1.07 |
| TGGGTACATC | 1.03 |
| GCGTTAAGG | 0.988 |
| TTAGCTAAAT | 0.982 |
| CAATTGGCGG | 0.993 |
| CAGACTTCGC | 1.12 |
| GAGGTGGTTG | 1.08 |
| GAATCAGCAG | 1.09 |
| TTGTTCTAAA | 0.971 |

| Sequence | switch fluorescence ratio |
| --- | --- |
| GGTCGGCCAT | 1.01 |
| GGGGCCAAAG | 0.99 |
| CTTCTTTTA | 0.965 |
| GGTTCCGAAG | 1.04 |
| CCGTGAGGAC | 1.16 |
| ATAATGGTCG | 1.05 |
| TATCACAGCT | 1.04 |
| TCATACACGA | 1.23 |
| GACTTGATTG | 0.937 |
| TACCGGTACC | 1.07 |
| AGTGCTATGG | 1 |
| TACAATTGTA | 1.02 |
| AGCATACCAT | 1.06 |
| GGACGCCTAC | 1.68 |
| GGACGGCATG | 1 |
| TGCAGTTGGA | 0.999 |
| TATTGCCTTT | 1.05 |
| GTTCACCTTG | 0.937 |
| AGAGATACCT | 1.19 |
| AATCCTTTTG | 0.974 |
| CCTTGCGGAC | 3.81 |
| CCATCTGTAC | 1.68 |
| ACGGTGTGCA | 0.986 |

| Sequence | switch fluorescence ratio |
| --- | --- |
| AATCGCAAGA | 1.07 |
| AAAACTTGGA | 1.05 |
| ACTTGTCGAT | 1.01 |
| TTAGGTAGTA | 0.952 |
| GGAAAAGTT | 0.998 |
| TAGAGATACT | 1 |
| CTACCTCCCC | 1.49 |
| GATATCCTAT | 1.02 |
| AAGGTGGCTC | 0.99 |
| TCCAGCTATA | 1.64 |
| ATTTGGCCTC | 0.967 |
| GGCGACGCAG | 0.973 |
| GAGGCGTAAA | 0.982 |
| CATCCGTTG | 2.43 |
| CGTTAGTGAC | 1.02 |
| ATCCGTGCCA | 1 |
| GATGGCGCTG | 1.02 |
| ATTACAGTGG | 1.01 |
| TAACCACGTA | 1.14 |
| CTAATTTACC | 1.07 |
| AAGGCTAACC | 0.976 |
| CGTATTAAGG | 0.917 |
| ACCGAAAGAT | 1.09 |

| Sequence | switch fluorescence ratio |
| --- | --- |
| TGTAATCG | 1.01 |
| ATTTCACCTG | 1.03 |
| TCGGCCTATA | 1.05 |
| CAGGGAGCGA | 0.993 |
| CCTTCTTTGG | 1.04 |
| GCTCCCGAAA | 3.15 |
| TCAGGGTATG | 0.999 |
| CCGGCACGTA | 1.08 |
| GTTCGACATG | 0.971 |
| TGACAGTGTG | 0.974 |
| CGATTATGAG | 0.987 |
| ACTTAAGGGG | 1.04 |
| CTCCAGACA | 1.1 |
| GCATGAGGGC | 1.09 |
| ACCAGTCTGT | 0.997 |
| AGTTAAAGAC | 1.06 |
| GCGGGAGTCA | 1.01 |
| CCGCTGGACC | 3.12 |
| TGCAGGCTCT | 0.982 |
| AACGGGGACC | 1.09 |
